PMC4336329 (PLoS ONE, 2015)
The campaign covered roughly 310,000 compounds. About 14,000 (4.5%) showed an effect of 50% or more. Effects have a minus sign here. The list shows a part of the results.

What follows are compounds tested against human ether-à-go-go-related gene (hERG) potassium channel (human, UniProt Q12809) (assay: primary screen, population patch clamp on CHO cells stably expressing hERG).
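Note: peak tail current of the secondary pulse compared with the same well before compound.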

human ether-à-go-go-related gene (hERG) potassium channel, sequence (Q12809 whole entry, looked up): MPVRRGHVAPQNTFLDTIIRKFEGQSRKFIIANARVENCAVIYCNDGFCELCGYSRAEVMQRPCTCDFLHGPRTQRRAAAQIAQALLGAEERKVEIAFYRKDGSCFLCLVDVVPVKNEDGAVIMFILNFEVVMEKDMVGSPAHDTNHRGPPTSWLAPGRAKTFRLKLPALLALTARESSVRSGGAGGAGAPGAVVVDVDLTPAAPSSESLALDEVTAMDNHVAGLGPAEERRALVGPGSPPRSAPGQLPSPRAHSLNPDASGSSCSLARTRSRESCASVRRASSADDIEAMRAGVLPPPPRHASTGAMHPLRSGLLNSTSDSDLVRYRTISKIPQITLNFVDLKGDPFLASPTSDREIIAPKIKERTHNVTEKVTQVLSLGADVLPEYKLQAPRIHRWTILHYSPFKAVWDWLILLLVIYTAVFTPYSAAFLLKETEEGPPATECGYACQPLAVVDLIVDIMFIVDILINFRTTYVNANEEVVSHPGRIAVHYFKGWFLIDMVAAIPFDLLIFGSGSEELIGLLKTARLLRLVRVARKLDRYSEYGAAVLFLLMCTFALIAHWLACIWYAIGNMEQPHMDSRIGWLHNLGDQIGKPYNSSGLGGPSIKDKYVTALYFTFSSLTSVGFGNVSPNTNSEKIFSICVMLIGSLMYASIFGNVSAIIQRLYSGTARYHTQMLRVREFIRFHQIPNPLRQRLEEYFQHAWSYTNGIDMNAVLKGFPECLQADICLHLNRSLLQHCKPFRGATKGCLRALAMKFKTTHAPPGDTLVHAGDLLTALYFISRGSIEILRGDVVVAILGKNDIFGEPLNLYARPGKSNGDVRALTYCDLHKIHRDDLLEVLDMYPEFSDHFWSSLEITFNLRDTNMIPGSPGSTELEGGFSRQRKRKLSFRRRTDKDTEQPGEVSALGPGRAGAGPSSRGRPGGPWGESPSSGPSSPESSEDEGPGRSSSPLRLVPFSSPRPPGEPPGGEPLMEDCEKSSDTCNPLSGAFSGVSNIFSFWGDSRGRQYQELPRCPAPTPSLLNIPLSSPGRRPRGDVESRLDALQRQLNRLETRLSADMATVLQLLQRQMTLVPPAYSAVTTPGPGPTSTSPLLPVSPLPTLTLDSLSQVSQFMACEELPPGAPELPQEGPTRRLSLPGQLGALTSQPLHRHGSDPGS

Row | Structure (SMILES) | hERG current change (%, negative = inhibition) at 10uM [%]
1 | Cc1cccc(OCCC(=O)Nc2ccc(F)c(Cl)c2)c1 | 0.149
2 | O=C(CCN1C(=O)C2C3C=CC(C3)C2C1=O)N1CCN(c2ccc([N+](=O)[O-])cc2)CC1 (centres unmarked) | -81.2
3 | COc1ccc(-c2csc(-n3ncc(C(=O)O)c3C(F)(F)F)n2)cc1 | 20
4 | CCOC(=O)/C(=N\Nc1cc(Cl)ccc1Cl)N1CC(C)OC(C)C1 (centres unmarked) | 14.2
5 | Cc1ccc(C(=O)N2CCCC(Nc3cccc(F)c3)C2)cc1N1CCNC1=O (centres unmarked) | 1.96
6 | COc1ccc(CCC(=O)NC2CCCc3ccccc32)cc1OC (centres unmarked) | 18.7
7 | COc1ccc(OCC(=O)NCCCNC(=O)COc2ccc(OC)cc2)cc1 | -12.5
8 | O=C(c1noc2c1CCc1ccccc1-2)N1CCCc2ccccc21 | -4.58
9 | CCOc1ccc(NS(=O)(=O)c2ccc(C(=O)NCc3ccncc3)cc2)cc1 | 8.25
10 | COCCn1cnc2c1c(=O)n(CC(=O)Nc1cc(C)on1)c(=O)n2Cc1ccccc1 | -22.2
11 | CCOC(=O)CCCCC(=O)c1[nH]c(=O)[nH]c1CSc1nnc2c3ccccc3n(C(C)C)c2n1 | -1.17
12 | Cc1c(Cl)cccc1-c1ccc(C(=O)N2CCN(c3ccc([N+](=O)[O-])cc3)CC2)o1 | -14
13 | NS(=O)(=O)c1ccc(CCNC(=O)CNC(=O)Cc2ccccc2)cc1 | 23.6
14 | c1cc(CNC2=NCCCCC2)ccn1 | 3.06
15 | CC(C)[C@H](NS(=O)(=O)c1ccc2c(c1)OCCO2)C(=O)OCC(=O)Nc1cc(Cl)ccc1Cl | 1.67
16 | COc1cc(NC(=O)CCCOc2ccc(Cl)cc2Cl)c(C(=O)O)cc1OC | -10.6
17 | N/C(=N\OC(=O)CCCOc1ccccc1)c1ccccc1 | 7.28
18 | O=C(Nc1ccccc1)N1CCN(C2c3ccccc3-c3ccccc32)CC1 | 13.7
19 | CCC(C)NC(=O)CN(c1ccc(Cl)c(Cl)c1)S(C)(=O)=O (centres unmarked) | 3.62
20 | CCCc1nc(SCc2ccccn2)c2c(=O)n(C)c(=O)n(C)c2n1 | -59.1
21 | CCCCN(C(=O)c1cccc(C)c1)c1c(N)n(CCC)c(=O)[nH]c1=O | 17.3
22 | Cc1ccc2nc(NC(=O)CSc3nc(=O)n(CCCN(C)C)c4c3CCC4)sc2c1 | -50.2

Row | Structure (SMILES) | hERG current change (%, negative = inhibition) at 10uM [%]
23 | CC(=O)N1N=C(c2cccc(Cl)c2)OC1c1ccc(C(C)C)cc1 (centres unmarked) | 6.7
24 | Cc1cccc(C(=O)Nc2ccccc2SCC(=O)Nc2ccc(C)c(Cl)c2)c1 | 28.5
25 | CC(C)c1ccc(NC2CCCN(C(=O)CN3CCCC3=O)C2)cc1 (centres unmarked) | 12.8
26 | CN1C2C(Br)CCCCN2c2ccc(F)cc2S1(=O)=O (centres unmarked) | -7.86
27 | O=C(Nc1c2c(nn1-c1ccc(Cl)cc1)CS(=O)(=O)C2)c1ccccc1 | 1.37
28 | COc1ccccc1/C=N/NC(=O)c1nnn(-c2nonc2N)c1-c1cccs1 | 13
29 | COc1ccccc1N1CN(CCc2ccccc2)CNC1=S | 6.07
30 | Cc1ccc(-c2[nH][nH]c(=O)c(=O)c2N=Nc2ccccc2)cc1 | 12.9
31 | O=C(c1cc2c(s1)-c1ccccc1S(=O)(=O)C2)N1CCN(Cc2ccccc2)CC1 | -34.3
32 | Cc1ccc(NC(=O)CCC(=O)NNC(=O)C(C)(C)C)c(C)c1 | -12.3
33 | Cc1c(N=CN2CCOCC2)c(=O)n(C)c(=O)n1C | 2.15
34 | NC(=O)N/N=C/c1cn(CC(=O)Nc2ccc(F)cc2)c2ccccc12 | -0.767
35 | COc1ccccc1OCCNC(=O)CN1C(=O)NC2(CCCCC2)C1=O | -22
36 | CCc1ccc(NC(=O)CSc2nnc(CNC(=O)c3c(F)cccc3Cl)o2)cc1 | 7.23
37 | CCNS(=O)(=O)c1ccc(CCC(=O)N2CCN(c3ccccc3F)CC2)cc1 | -0.133
38 | COc1cc2c(cc1OC)C(C)N(Cc1ccc3c(c1)OCO3)CC2 (centres unmarked) | -3.76
39 | O=C(O)CCC(=O)Nc1cccc(-c2nc3ccccc3o2)c1 | 16.9
40 | O=C1N=C(N2CCCCC2)S/C1=C\c1ccc(Br)cc1 | 10.4
41 | COc1ccc(CNC(=O)CCc2nc3cc(S(=O)(=O)N(C)C)ccc3n2C)cc1OC | 14.3
42 | CCCCNC(=O)CN1CCC2(O)CCCCC2C1c1ccccc1OC (centres unmarked) | -0.712
43 | COc1cc2c(cc1OC)C(c1cccs1)N(C(=O)c1ccncc1)CC2 (centres unmarked) | -66.8
44 | Cc1ccc(-n2c(C)cc(/C=C3\NC(=O)NC3=O)c2C)c(C)c1 | -5.9

Row | Structure (SMILES) | hERG current change (%, negative = inhibition) at 10uM [%]
45 | CC(C)(C)n1nnnc1C(c1cccc(C#N)c1)N1CCC(Cc2ccccc2)CC1 (centres unmarked) | -8.52
46 | CC(=O)N1c2ccc(S(=O)(=O)N3CCCCC3)cc2CC1C (centres unmarked) | 11.1
47 | CCC(C)[C@H](NC(=O)NCc1cccc(OC)c1)C(=O)O (some centres unmarked) | -4.53
48 | Cc1cc(C)nc(NS(=O)(=O)c2ccc(NC(=O)c3ccccc3[N+](=O)[O-])cc2)n1 | 14.7
49 | Cn1c(CN2CCOCC2)c(C#N)c2ccccc21 | -19.1
50 | COc1ccc(-c2cn[nH]c2-c2ccc(OCc3ccccc3)cc2O)cc1OC | 17.3
51 | O=C(c1cc2c(s1)CCCC2)n1cccn1 | 6.42
52 | Cc1ccc(S(=O)(=O)N(CC(=O)N2CCC(C)CC2)c2ccccc2)cc1 | -26.4
53 | CCC(=O)Nc1ccc2oc(-c3cccc(C)c3)nc2c1 | -7.54
54 | Cc1ccc(C(=O)C2CCN(C(=S)NCC3CCCO3)CC2)cc1 (centres unmarked) | 29.7
55 | NS(=O)(=O)c1ccc(NC(=O)COC(=O)c2ccc(Cl)cc2[N+](=O)[O-])cc1 | -7.82
56 | COc1ccc(NC(=O)c2cccc(NC(=O)C(C)C)c2)c([N+](=O)[O-])c1 | 5.22
57 | O=C(CN1C(=O)NC(c2ccccc2)(c2ccccc2)C1=O)NCc1ccccc1 | -31
58 | Cc1[nH]nc2c1[C@@H](c1ccccc1[N+](=O)[O-])C(C#N)=C(N)O2 | 13.5
59 | O=c1[nH]cnc2ncc(-c3ccc(O)cc3)nc12 | 5.11
60 | Cc1nc(SCC(=O)Nc2c(C)n(C)n(-c3ccccc3)c2=O)[nH]c(=O)c1C | 3.4
61 | Cc1c(NC(=S)NC(=O)c2ccco2)c(=O)n(-c2ccccc2)n1C | 1.44
62 | CCCCOc1ccc(Cl)cc1CSc1nncn1N | -1.87
63 | CCc1ccc(NC(=O)C2CCCN2S(=O)(=O)c2ccc3c(c2)n(C)c(=O)c(=O)n3C)cc1 (centres unmarked) | -46.8
64 | CCOC(=O)c1cccc(NC(=O)c2cncc(Br)c2)c1 | -17.3
65 | Cc1ccc(C)c(C(C)NC(=O)Cc2cccs2)c1 (centres unmarked) | 13.5
66 | COc1ccc(C(=O)NC(=S)Nc2cccnc2)cc1Cl | -5.85

Row | Structure (SMILES) | hERG current change (%, negative = inhibition) at 10uM [%]
67 | CN(C)Cc1nc2ccccc2c(=O)n1CC(=O)Nc1cccc(S(=O)(=O)N2CCOCC2)c1 | -14.4
68 | O=C(NC1CC1)C1CCN(C(=O)c2ccc(Cl)cc2Cl)CC1 | 7.57
69 | COc1ccc(C(=O)Oc2ccc(=O)n(-c3ccccc3)n2)cc1 | -13.5
70 | O=C(COc1ccc(Cl)cc1)N1CCN(Cc2ccc3c(c2)OCO3)CC1 | -52.6
71 | CCOC(=O)N1CCN(C(=O)c2cccc(N3C(=O)NC4CC3(C)Oc3ccc(Cl)cc34)c2)CC1 (centres unmarked) | -35.4
72 | COc1ccc(-n2nc(C(=O)NCC(=O)N3CCN(c4ccccn4)CC3)c3ccccc3c2=O)cc1OC | -6.11
73 | CC1(C)C(=O)NCCN1C(=O)CSc1nccc(-c2ccc(Br)cc2)n1 | 5.16
74 | O=C(Cc1ccc([N+](=O)[O-])cc1)N/N=C/c1ccc([N+](=O)[O-])o1 | -64.7
75 | C=CCn1c(CSCc2ccc(C)cc2)nnc1SCC(=O)NCc1ccccc1 | -44.1
76 | COc1cc(-c2cc(-c3nnco3)c3ccccc3n2)cc(OC)c1OC | 1.39
77 | Cn1nccc1NC(=O)Nc1cccc([N+](=O)[O-])c1 | 5.97
78 | Cc1ccc(SCCN)cc1C.Cl | 28.9
79 | CN(Cc1ccccc1)S(=O)(=O)c1ccccc1[N+](=O)[O-] | -5.27
80 | O=C(NCC(O)c1ccc2ccccc2c1)c1c(F)cccc1F (centres unmarked) | 11.8
81 | CC(NC(=O)C(=O)N1CCCCC1)C(c1cccs1)N1CCN(c2ccc(F)cc2)CC1 (centres unmarked) | -21.9
82 | O=C(C1CC(=O)N(C2CCCC2)C1)N1CCN(c2cccc(Cl)c2)CC1 (centres unmarked) | -7.79
83 | CCN(CC)C(=O)N1CCN(C)CC1.O=C(O)CC(O)(CC(=O)O)C(=O)O | 23.2
84 | CCN(CC)S(=O)(=O)c1ccc2c(c1)nc(SC(C)C(N)=O)n2-c1ccc(OC)cc1 (centres unmarked) | -51.7
85 | COc1cccc2c1OC1(C)CC2/C(=C(\C)O)C(=O)N1 (centres unmarked) | 4.65
86 | CCOC(=O)C1CCN(C(=O)CN(c2cccc(C(F)(F)F)c2)S(C)(=O)=O)CC1 | -25.9
